Test results reported in publication PMC4336329 (PLoS ONE, 2015).
The whole screen tested about 310,000 compounds, of which about 2,200 (0.71%) showed an effect of 50% or more. The effect is printed as a negative number. Some of the results follow.

Target: human ether-à-go-go-related gene (hERG) potassium channel (human, UniProt Q12809)
Experiment: primary screen, population patch clamp on CHO cells stably expressing hERG

human ether-à-go-go-related gene (hERG) potassium channel, sequence (Q12809 whole entry, looked up): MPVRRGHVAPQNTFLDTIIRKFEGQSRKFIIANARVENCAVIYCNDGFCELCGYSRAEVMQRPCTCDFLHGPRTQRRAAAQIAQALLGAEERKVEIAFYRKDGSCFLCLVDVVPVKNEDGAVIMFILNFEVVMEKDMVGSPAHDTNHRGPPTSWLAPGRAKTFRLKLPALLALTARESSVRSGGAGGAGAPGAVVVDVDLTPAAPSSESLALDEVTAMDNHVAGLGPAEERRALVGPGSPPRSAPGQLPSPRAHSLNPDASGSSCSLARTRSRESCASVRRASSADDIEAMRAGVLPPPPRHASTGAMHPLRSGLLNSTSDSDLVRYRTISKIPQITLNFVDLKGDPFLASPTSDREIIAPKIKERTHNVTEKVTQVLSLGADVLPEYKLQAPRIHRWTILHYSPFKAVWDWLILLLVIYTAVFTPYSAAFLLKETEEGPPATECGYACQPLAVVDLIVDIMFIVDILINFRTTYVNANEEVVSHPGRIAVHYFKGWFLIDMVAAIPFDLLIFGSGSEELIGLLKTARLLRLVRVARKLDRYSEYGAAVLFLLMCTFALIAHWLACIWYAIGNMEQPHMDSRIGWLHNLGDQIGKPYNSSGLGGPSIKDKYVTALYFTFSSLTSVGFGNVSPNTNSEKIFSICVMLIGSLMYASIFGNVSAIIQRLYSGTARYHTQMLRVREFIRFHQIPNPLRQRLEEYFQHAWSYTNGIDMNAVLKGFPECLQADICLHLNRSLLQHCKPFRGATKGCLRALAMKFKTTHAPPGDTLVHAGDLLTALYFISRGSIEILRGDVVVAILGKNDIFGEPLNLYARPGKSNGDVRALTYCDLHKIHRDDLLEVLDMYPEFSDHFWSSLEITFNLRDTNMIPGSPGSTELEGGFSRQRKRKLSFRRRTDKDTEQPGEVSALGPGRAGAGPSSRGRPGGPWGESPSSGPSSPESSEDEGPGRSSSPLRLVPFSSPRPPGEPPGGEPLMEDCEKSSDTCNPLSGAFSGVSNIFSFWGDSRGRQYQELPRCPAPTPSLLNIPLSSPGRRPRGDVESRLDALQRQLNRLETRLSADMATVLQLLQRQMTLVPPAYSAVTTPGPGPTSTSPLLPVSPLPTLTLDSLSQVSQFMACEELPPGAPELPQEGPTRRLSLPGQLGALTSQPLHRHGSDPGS

Row | Compound | hERG current change (%, negative = inhibition) at 1uM
1 | COc1cccc(-c2noc(CCC(=O)NCCc3ccccc3)n2)c1 | 10.5%
2 | CCOc1ccc(NS(=O)(=O)c2ccc(C(=O)N3CCCCCC3)cc2)cc1 | -6.49%
3 | COc1ccc(NC(=O)C2CC(c3ccccc3O)=NO2)cc1OC (stereo not drawn) | 12%
4 | O=C(O)c1sc2cccc(Cl)c2c1Cl | 12.8%
5 | O=C(C[n+]1ccccc1)N/N=C/c1ccc(C(=O)O)cc1.[Cl-] | 7.13%
6 | COC(=O)c1ccccc1S(=O)(=O)N1CCC(C(=O)OCC(=O)NC2CCCCC2C)CC1 (stereo not drawn) | 4.02%
7 | Cc1noc(-c2ccccc2)c1NC(=O)Nc1ccc(Cl)cc1 | 11.9%
8 | COc1ccc(OC)c(CNC(=O)CCCc2cn(C)c3ccccc23)c1 | 10.9%
9 | COC(=O)C1=C(c2ccccc2)C[C@@H]2CC[C@H]1N2C(=O)NCc1ccc(F)cc1 | 3.84%
10 | CCc1nnc(NC(=O)CSc2ncnc3scc(-c4ccc(C)cc4)c23)s1 | 2.98%
11 | COc1ccc(-c2cc3cc(OC)c(OC)cc3cn2)cc1OC.Cl | 10.2%
12 | COc1ccc(CCn2c(O)c(/C=N/NC(=O)c3ccncc3)c(=O)[nH]c2=O)cc1OC | 12.1%
13 | CCOC(=O)C(CCCCCOc1ccc([N+](=O)[O-])cc1)C(=O)OCC | 3.22%
14 | COc1cc(/C=C/[N+](=O)[O-])ccc1OC(=O)c1cc2ccccc2oc1=O | 13.5%
15 | Cc1cc(NC(=O)/C=C/C(=O)N(CC(=O)NC2CCCC2)c2ccc(F)cc2)no1 | 6.93%
16 | CC1(C)C2CCC(C2)C1(C)NC(=O)CNCc1cccs1.Cl (stereo not drawn) | 11%
17 | COC(=O)c1ccc2nccnc2c1 | 7.39%
18 | CCOC(=O)Nc1ccc(C(=O)/C=C/c2ccccc2)cc1 | 4.99%
19 | c1ccc(-c2noc(CC3CCCCC3)n2)cc1 | 10.6%
20 | O=C(CN1CCN(C2CCCCC2)CC1)c1ccc2cc[nH]c2c1 | 8.47%
21 | CCc1ccc2oc(C(=O)N3CCN(c4ccccc4OC)CC3)cc(=O)c2c1 | -57.4%
22 | CCOc1ccc(N=C2NC(=O)S/C2=C\c2ccc(Cl)cc2)cc1 | 10.4%
23 | Cc1ccc(NC(=O)CSc2sc3c(O)cc(=O)[nH]c3c2C#N)c(F)c1 | -4.66%

Row | Compound | hERG current change (%, negative = inhibition) at 1uM
24 | O=C(Nc1nnc(SCCN2CCOCC2)s1)C1CC(=O)N(c2ccc(F)cc2)C1 (stereo not drawn) | 11.5%
25 | Cc1ccccc1OCc1nnc(SCC(=O)NCc2ccccc2)n1C | 1.47%
26 | Cc1ccc(S(=O)(=O)N(CC(=O)O)c2ccc(Cl)c(C(F)(F)F)c2)cc1 | 7.51%
27 | CCOC(=O)C(C)(C)Sc1nc2c(cnn2-c2ccc(F)cc2)c(=O)[nH]1 | 10.4%
28 | CCn1c(C2CC(=O)N(c3cc(C)cc(C)c3)C2)nc2ccccc21 (stereo not drawn) | 7.31%
29 | CCN(CC)C(=O)c1ccc(NS(=O)(=O)c2ccc3[nH]c(=O)[nH]c3c2)cc1 | 14.1%
30 | CC(C)CCNC(=O)C1CC(c2ccccc2C(F)(F)F)=NO1 (stereo not drawn) | -5.2%
31 | CSC(=NS(=O)(=O)c1ccccc1)SC | 16.8%
32 | Cc1cccc2sc(N3CCN(C(=O)C4COc5ccccc5O4)CC3)nc12 (stereo not drawn) | 0.776%
33 | COCCCNC(=O)C(CC(N)=O)NC(=O)OCc1ccccc1 (stereo not drawn) | 8.28%
34 | COc1ccc(C(=S)N2CCOCC2)cc1OC(=O)c1cc([N+](=O)[O-])c(C)c([N+](=O)[O-])c1 | 2.21%
35 | COc1cc(C(=S)N2CCOCC2)cc(OC)c1OC | 7.25%
36 | Clc1cccc(N2CCNCC2)c1Cl | 5.63%
37 | O=C(Nc1ccc(N2CCCC2)c(Cl)c1)c1ccc2c(c1)OCCO2 | 14.8%
38 | CC(NC(=O)COC(=O)/C(=C/c1cccs1)c1cccs1)c1ccccc1 (stereo not drawn) | 6%
39 | COc1ccc(C(=O)NC(=S)Nc2ccc(CN3CCCCC3)cc2)cc1Cl | -0.394%
40 | COc1ccc(CN2CCN(C(C)C(=O)N(C)Cc3cccc(F)c3)CC2)cc1OC.O=C(O)C(=O)O (stereo not drawn) | -32%
41 | O=C(O)c1cccc(S(=O)(=O)Nc2cc(Cl)ccc2Cl)c1 | 10.1%
42 | CC(=O)N1CCN(c2ccc(NC(=O)c3cc(Cl)ccc3Cl)cc2)CC1 | 22.3%
43 | CC(=O)c1ccc(NC(=O)CN2CCC(NC(=O)C3CCCCC3)CC2)cc1 | 9.68%
44 | CN(C)CCN(C(=O)c1cccs1)c1nc2cc3c(cc2s1)OCCO3.Cl | 7%
45 | CCC1CCCCN1C(=O)/C=C/c1ccc2c(c1)OCO2 (stereo not drawn) | 12.6%
